Source: PubChem BioAssay (NCI)
Where “and” joins values, the source holds several entries; their conditions need not be identical. Identical values can stand only once.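 Growth conditions: 96-well plates. Treatment: test compound, 48 hours, 5 concentrations. Analysis: linear interpolation between bracketing concentrations; unreached endpoints set to highest concentration. At the GI50, growth is halved. The concentration for full growth arrest is given as TGI.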

Tested on: NCI-H322M lung
Assay: NCI-60 cell line screen, 48 h

Structure (SMILES) | TGI | GI50
COc1cc(C2c3cc4c(cc3OC(N3CCOCC3)C2C)OCO4)cc(OC)c1O (configuration not stated) | > 79.9 µM | 
c1cncc(C2c3[nH]c4ccccc4c3CCN2CCN2CCCCC2)c1 (configuration not stated) | > 100 µM | 
O=C(c1cccs1)N(C(=O)N1CCC(c2ccccc2)CC1)c1ccccc1 | > 100 µM | 
Cc1ccc2[nH]c(=O)c(-c3cnc(=O)[nH]n3)c(O)c2c1 | > 100 µM | 
CCN(CC)CC(C)Nc1ccc(C)c2sc3ccccc3c(=O)c12 (configuration not stated) | 23.2 µM | 9.49 µM
CO[P@]1(=O)O[C@@H](c2ccccc2)[C@H](O)[C@]1(O)c1ccccc1 | > 100 µM | 
CCOC(=O)/C(=C\c1ccc(CO)o1)P(=O)(OCC)OCC | > 100 µM | 
Cc1ccc(S(=O)(=O)NCCN2c3nc4ccccc4cc3Sc3cc4ccccc4nc32)cc1 | > 100 µM | > 100 µM
COC(=O)CC1C2CC3C(C2=O)C13 (configuration not stated) | > 100 µM | 
COC(=O)c1ccc2c(c1)c1c(C)c3cnccc3c(C)c1n2C | 4.12 µM | 0.267 µM
Clc1ccc(-c2nc(-c3ccc(Cl)cc3)[s+]s2)cc1 | > 100 µM | 
O=C1c2cccc3cc([N+](=O)[O-])cc(c23)C(=O)N1CCCN1CCN(CCCN2C(=O)c3cccc4cc([N+](=O)[O-])cc(c34)C2=O)CC1 | 23.9 µM | 
COc1ccc2nc3c([N+](=O)[O-])ccc4c3c(c2c1)NCCN4C | 10.2 µM | 
Nc1ncnc2c1ncn2C1OC(C(=O)O)C(O)C1O (configuration not stated) | > 100 µM | 
CN(C)Cc1cc(N=Nc2ccc(Cl)c(Cl)c2)ccc1O | 23.9 µM | 
c1ccc(COc2ccc3[nH]c4c(ncc5[nH]c6ccccc6c54)c3c2)cc1 | 44 µM | 
NCCCCCCNc1cc(-c2cccc(OC(F)(F)F)c2)nc2ccc(N3CCCC3)cc12 | 3.01 µM | 1.64 µM
O=C1C=C(c2cc(Br)c(O)c(Br)c2)/C(=C/c2cc(Br)c(O)c(Br)c2)O1 | > 75 µM | 28.2 µM
Cn1nnnc1[N-]Cc1ccccc1.[Au+].c1ccc([PH+](c2ccccc2)c2ccccc2)cc1 | 28.6 µM | 15.2 µM
NC1CCC(c2cc3ccccc3s2)(N2CCCCC2)CC1 (configuration not stated) | 6.42 µM | 
CC1=C(N2CC2)C(=O)c2nc3n(c2C1=O)CCC3O (configuration not stated) | 1.66 µM | 
O=C(O)c1[nH]c(C(=O)O)c(CC(F)(F)C(F)(F)C(F)(F)F)c1CC(F)(F)C(F)(F)C(F)(F)F | > 100 µM | 
Clc1ccc(OCc2nnc(CCCCCCCCc3nnc(COc4ccc(Cl)cc4Cl)o3)o2)c(Cl)c1 | > 100 µM | 
C=C(Br)CN(C#N)CC(=C)Br | > 100 µM | 

Structure (SMILES) | TGI | GI50
CCCCS(=N)(=O)CC[C@H](N)C(=O)O (some centres not stated) | > 10000 µM | > 10000 µM
Cc1ccc(-c2cc3nc(-c4ccccc4)nc(C(Cl)Cl)n3n2)cc1 | 1.43 µM | 0.64 µM
COc1ccc(CN=CN/C(C#N)=C(\N)C#N)cc1OC | > 100 µM | 
CC(=O)C(=C(I)I)c1ccccc1 | 32.5 µM | 
CN(C)c1ccc(/C=C2\N=C(c3ccccc3)N(c3nc4c(Cl)cc(Cl)cc4s3)C2=O)cc1 | > 100 µM | 
COc1nc2c(c(=O)n1C)N[C@@H]1[C@@H](O)[C@H](O)CO[C@@H]1N2 | > 100 µM | 
CCOC(OC1=C(C#N)CCC1)C(CC)[Se]c1ccccc1 (configuration not stated) | > 100 µM | 
O=C(c1ccco1)N(C(=S)N1CCN(c2ccccc2)CC1)c1ccccc1 | > 100 µM | 
CC1(C)C(=O)/C(=C\c2ccco2)C[C@]2(C)[C@H]3CC=C4[C@@H]5C[C@](C)(C(=O)O)CC[C@]5(C)CC[C@@]4(C)[C@]3(C)CC[C@@H]12 | 25.4 µM | 10.8 µM
S=C1CC(c2ccc(Cl)cc2)Sc2ccccc2N1 (configuration not stated) | > 100 µM | 
COc1ccc(N=Cc2ccc(N(CCC#N)CCC#N)cc2)cc1 | > 100 µM | 
N#CC(c1ccccc1)c1cccc2ccccc12 (configuration not stated) | > 100 µM | 
CN(C)CN1C(=O)S/C(=C2\C(=O)N(CN(C)C)c3ccccc32)C1=O | > 100 µM | 
CCOC(=O)C(=O)Nc1c(C)cccc1CC | > 100 µM | 
CC1(C)CCOC(=O)C(Cl)CC1Cl (configuration not stated) | > 100 µM | 
Cc1ccc(C)c(NC(=O)/C(=N\NC(N)=S)C(C#N)c2ccccc2)c1 (configuration not stated) | > 100 µM | 
COc1cccc(C2c3cc4c(cc3OC(N3CCOCC3)C2C)OCO4)c1O (configuration not stated) | > 100 µM | 
CC1=C(C#N)S(=O)(=O)c2c(oc(C)c2C)N1 | > 100 µM | 
CN(C)c1ccc(C(c2ccc(N(C)C)cc2)c2ccc([N+](=O)[O-])cc2)cc1 | > 100 µM | 
CCN1C/C(=C\c2ccc(Cl)cc2)C2=NN(c3ccccc3)C(c3ccc(Cl)cc3)C2C1 (configuration not stated) | > 100 µM | 
NC(N)=NNC(=O)C(=O)O | > 100 µM | 
Cn1cc(NC(=O)c2cc(NC(=O)CCCCCC(=O)Nc3cc(C(=O)Nc4cc(C(=O)NCCC(=N)N)n(C)c4)n(C)c3)cn2C)cc1C(=O)NCCC(=N)N | > 100 µM | 
COc1cc2[nH]c(-c3ccccc3)cc(=O)c2cc1OC | > 100 µM | 
Cc1ccc(S(=O)(=O)ON/N=C2/C3OC3[C@@H]3CCCC[C@H]23)cc1 (some centres not stated) | > 100 µM | 

Structure (SMILES) | TGI | GI50
C=C1C(O)C2C(=C(CC(C)C)C13CC3)C(=O)C(C)(C)C2OC (configuration not stated) | > 100 µM | > 100 µM
CCN(CC)CCNc1ccc(N=Nc2ccc(S(N)(=O)=O)cc2)c2ccccc12 | 38.5 µM | 
CCCCNC(=S)Nc1nc(C(=O)NNS(=O)(=O)c2ccccc2)cs1 | > 100 µM | 
O=C(O)C(Cc1ccc(O)c([N+](=O)[O-])c1)N1C(=O)c2ccccc2C1=O (configuration not stated) | > 100 µM | 
CC(O)C(NC(=O)C(CS)NC(=O)C(CO)NC(=O)C(CCCCN)NC(=O)C(Cc1c[nH]c2ccccc12)NC(=O)C(Cc1ccc(O)cc1)NC(=O)C(CS)NC(=O)C(N)Cc1ccccc1)C(N)=O (configuration not stated) | > 25 µM and 51.2 µM | 
CC(C)(C)C([O-])=C1C(=O)c2ccccc2C1=O.CC(C)(C)C([O-])=C1C(=O)c2ccccc2C1=O.CC[O-].CC[O-].[Ti+4] | > 100 µM | 27.1 µM
COc1ccc(-c2cn3c(n2)sc2cc(C)ccc23)cc1 | > 100 µM | 
OC1CCC(C2C3CCCCC3C3CCCCC3C2C2CCC(O)CC2)CC1 (configuration not stated) | 19.7 µM | 
CN(C)CCCOC(=O)C(O)(Cc1ccccc1)C1CC1 (configuration not stated) | > 100 µM | 
CN(C)Cc1cc(C(=O)/C=C/c2ccc(/C=C/C(=O)c3cc(CN(C)C)c(O)c(CN(C)C)c3)cc2)cc(CN(C)C)c1O | > 100 µM | 
O=C(CSc1nc2ccc(I)cc2c(=O)n1Cc1ccccc1)Nc1ccc(Br)cc1 | > 100 µM | 
O=C(N/N=C/c1ccc(F)cc1)c1[nH]c2ccc(I)cc2c1-c1ccccc1 | > 100 µM | 3.41 µM
Cc1c(C(=O)CC(=O)C(=O)NC2C3CC4CC(C3)CC2C4)[n+](=O)c2ccccc2n1[O-] (configuration not stated) | > 100 µM | 
[Cl][Sn]([c]1ccccc1)[c]1ccccc1 | 28.5 µM | 15.1 µM
Cc1cc(O)cc(C)c1/C=C/c1cncc(C(=O)N(C)C)c1 | > 25 µM | > 25 µM
COC(=O)/C=C1/OC(c2ccccc2)=C(Cl)C1=O | > 66.3 µM | 
COc1cc2c(cc1OCCCC(=O)Nc1cc(C(=O)Nc3cc(C(=O)NCCCN(C)C)n(C)n3)n(C)n1)N=CC1CCCN1C2=O (configuration not stated) | > 100 µM | 
O=[N+]([O-])C(=C(NCc1ccccc1)NCc1ccccc1)C(Cl)=C(Cl)Cl | > 100 µM | 
Cc1ccc(N2C(=O)C(Cl)=C(Nc3cccc(O)c3)C2=O)cc1Cl | 33.1 µM | 18 µM
Cc1ccc2c3c1O[C@H]1c4nc5ccccc5cc4C[C@@]4(O)[C@@H](C2)N(CC2CC2)CC[C@]314 | 32.5 µM | 
COc1cccc(/C=C/C2=NN(c3cccc(S(=O)(=O)O)c3)C3(C2)SCC(=O)N3c2nc3ccccc3s2)c1 (configuration not stated) | > 100 µM | 
CN(C)CCOc1ccc(-c2c(Oc3ccc(Cl)cc3)c(=O)oc3ccccc23)cc1 | 20.9 µM | 
COc1cccc2c1C1=CC(=O)CCC1C(C)(C)O2 (configuration not stated) | > 100 µM | 
CCN(CC)C(=O)CCCCCCCCC1CO1 (configuration not stated) | > 100 µM | 
